These are yes or no findings as the source states them, for the method shown. In cells and extracts the contact can be indirect. Some binding calls cover weakened binding; strength is not graded here. For some of these results: Sequences can lack the tags named with a protein. Blank lines part the entries; values can stand above or below the binder they belong to.
Tests used:
Flag-tagged p53 = Flag-tagged p53 (UniProt P04637); test: co-IP; U87 cells transfected with Flag-p53 and HA-TRIM45; lysates immunoprecipitated with anti-Flag beads, immunoblotted with anti-HA; low-salt lysis buffer (50 mM HEPES, 150 mM NaCl, 1% Triton X-100)
HA-p53 (1–300) = HA-p53 (1–300) (UniProt P04637); test: co-IP; 293T cells transfected with Flag-TRIM45 and HA-p53 or HA-tagged p53 deletion mutants, treated with 10 uM MG132; immunoprecipitated with anti-HA beads, immunoblotted with anti-Flag
HA-p53 (100–393) = HA-p53 (100–393) (UniProt P04637); test: as above
[1] = biological target: endogenous p53 (human (endogenous in U87)) (UniProt P04637); test: co-IP; U87 cell extracts, endogenous proteins; immunoprecipitated with anti-p53 antibody or IgG, immunoblotted with anti-TRIM45

binding (Flag-tagged p53): binds
B1: HA-tagged TRIM45 (tripartite motif-containing protein 45) (protein, UniProt Q9H8W5 1-580)
chain: MSENRKPLLGFVSKLTSGTALGNSGKTHCPLCLGLFKAPRLLPCLHTVCTTCLEQLEPFSVVDIRGGDSDTSSEGSIFQELKPRSLQSQIGILCPVCDAQVDLPMGGVKALTIDHLAVNDVMLESLRGEGQGLVCDLCNDREVEKRCQTCKANLCHFCCQAHRRQKKTTYHTMVDLKDLKGYSRIGKPILCPVHPAEELRLFCEFCDRPVCQDCVVGEHREHPCDFTSNVIHKHGDSVWELLKGTQPHVEALEEALAQIHIINSALQKRVEAVAADVRTFSEGYIKAIEEHRDKLLKQLEDIRAQKENSLQLQKAQLEQLLADMRTGVEFTEHLLTSGSDLEILITKRVVVERLRKLNKVQYSTRPGVNDKIRFCPQEKAGQCRGYEIYGTINTKEVDPAKCVLQGEDLHRAREKQTASFTLLCKDAAGEIMGRGGDNVQVAVVPKDKKDSPVRTMVQDNKDGTYYISYTPKEPGVYTVWVCIKEQHVQGSPFTVMVRRKHRPHSGVFHCCTFCSSGGQKTARCACGGTMPGGYLGCGHGHKGHPGHPHWSCCGKFNEKSECTWTGGQSAPRSLLRTVAL

binding (HA-p53 (1–300)): no binding
binding (HA-p53 (100–393)): binds
B2: Flag-TRIM45 (in 293T) (protein, UniProt Q9H8W5 1-580)
chain: B1 chain

binding [1]: binds
B3: endogenous TRIM45 (protein, UniProt Q9H8W5 1-580)
chain: B1 chain

From publication PMC5520693
